Results taken from PubChem BioAssay AID488969 (Vanderbilt High Throughput Screening Facility, 2010).
The full ranking holds about 110,000 compounds; the median of “z-score” is about -0.1, and the highest 2% start at about 2. Some of the results follow.

Each compound was assayed against Metabotropic glutamate receptor 8 (Rattus norvegicus) (UniProt P70579) (assay: rat mGluR8 modulators via GIRK flux, primary screen, cell-based, thallium flux, HTS (AID 488969)). Settings: HEK293 rat mGluR8, GIRK (G protein-gated inwardly rectifying potassium channel) thallium flux, FluoZin2; at 10 µM; stronger effect = higher value; submaximal glutamate (EC20) added with thallium.
Sequence of UniProt P70579 (P70579 whole entry, looked up): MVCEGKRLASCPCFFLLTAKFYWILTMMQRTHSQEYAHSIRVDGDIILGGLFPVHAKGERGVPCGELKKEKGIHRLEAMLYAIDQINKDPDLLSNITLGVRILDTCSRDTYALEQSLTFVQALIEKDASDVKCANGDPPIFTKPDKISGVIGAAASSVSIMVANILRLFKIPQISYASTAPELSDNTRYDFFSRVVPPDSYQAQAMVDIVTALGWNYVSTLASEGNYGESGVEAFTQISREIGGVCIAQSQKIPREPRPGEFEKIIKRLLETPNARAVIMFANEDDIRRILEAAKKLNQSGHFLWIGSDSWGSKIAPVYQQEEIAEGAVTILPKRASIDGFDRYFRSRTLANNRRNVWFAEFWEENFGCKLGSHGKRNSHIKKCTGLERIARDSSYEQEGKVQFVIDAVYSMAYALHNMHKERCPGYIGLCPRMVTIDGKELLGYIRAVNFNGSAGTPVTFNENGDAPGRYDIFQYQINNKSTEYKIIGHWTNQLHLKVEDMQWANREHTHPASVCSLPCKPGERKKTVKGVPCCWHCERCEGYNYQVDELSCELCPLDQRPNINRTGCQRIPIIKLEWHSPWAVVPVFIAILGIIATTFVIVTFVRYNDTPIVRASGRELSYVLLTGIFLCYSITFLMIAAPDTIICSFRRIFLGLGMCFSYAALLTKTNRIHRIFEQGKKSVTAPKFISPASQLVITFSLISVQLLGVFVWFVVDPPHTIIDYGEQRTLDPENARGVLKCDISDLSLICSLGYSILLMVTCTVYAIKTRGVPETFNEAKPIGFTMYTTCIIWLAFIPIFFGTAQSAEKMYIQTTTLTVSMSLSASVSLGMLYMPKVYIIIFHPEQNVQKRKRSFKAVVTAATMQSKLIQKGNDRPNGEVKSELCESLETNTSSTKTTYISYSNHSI
With Cc1ccc2c(c1)C(N1CCCC1=O)CC(c1ccco1)N2 (stereo not given) the z-score was 0.098. CCOC(=O)c1ccc(N2C(=O)c3n[nH]c(C)c3C2c2ccccc2)cc1 (stereo not given) showed a z-score of -0.773. Nc1c(Cl)cc(Cl)cc1C(=O)OCC(=O)NC1CC1 gave a z-score of -0.299. For CCOC(=O)c1c(C)[nH]c(C)c1C(=O)COC(=O)c1cccc(S(=O)(=O)N(CC)CC)c1, the z-score was -0.349. CC1CCCCC1NC(=O)C1CCN(S(=O)(=O)c2ccc(-n3cnnn3)cc2)CC1 (stereo not given) showed a z-score of -0.507. In the case of CCOc1cc(C2Nc3ccccc3C(=O)N2c2ccccc2OC)ccc1O (stereo not given), the z-score is reported as 0.837. C=C(C)C1CC=C(C)/C(=N/NC(=O)c2cccs2)C1 (stereo not given) gave a z-score of -0.0743. With COc1ccc2c(c1)[nH]c1c(=O)n(CCCN3CCOCC3)cnc12 the z-score was -0.031. For CC(NC(=O)C12CC3CC(CC(C3)C1)C2)C(=O)N/N=C/C1=C(N2CCOCC2)C(=C\c2cccc([N+](=O)[O-])c2)/CC1 (stereo not given), the z-score was -0.208. O=C(N/N=C/c1cccc([N+](=O)[O-])c1)c1ccc2c(c1)OCCO2 gave a z-score of 0.192. COc1ccc(C(CNC(=O)COc2ccccc2C#N)N2CCOCC2)cc1 (stereo not given) gave a z-score of 0.00444. For COc1ccc(NC(=O)c2ccco2)cc1NC(=O)c1ccc(C)cc1, the z-score was -0.304. Work on CCn1c(NCc2ccccc2Cl)nc2ccccc21 yielded a z-score of -0.202. In the case of COc1ccc(OC)c(C(=O)CSc2nc3cccnc3n2C)c1, the z-score is reported as 0.718. For COC(=O)c1cc(NC(=O)c2ccc(-c3ccccc3)cc2)ccc1Cl, the z-score was -1.57. For CCC(C)NC(=O)C1CCCCN1S(=O)(=O)c1ccc(F)cc1 (stereo not given), the z-score was -0.179. With CN(C)C(=O)c1noc2cc([N+](=O)[O-])ccc12 the z-score was 0.192. Work on CCOC(=O)c1cnc2c(C(=O)OC)cccc2c1NCc1ccco1 yielded a z-score of -0.328. For CS(=O)(=O)Nc1ccc(C(=O)NCc2ccco2)cc1, the z-score was 1.02. Work on O=C(COc1ccc([N+](=O)[O-])cc1)NCCC1=CCCCC1 yielded a z-score of -0.0621. Cc1cccc(OCc2nc(C#N)c(NCc3ccc4c(c3)OCO4)o2)c1 gave a z-score of 1.74. Cc1cc2oc(C(=O)NC3CCS(=O)(=O)C3)c(C)c2cc1C (stereo not given) showed a z-score of -0.187. CCN(CC)CCn1c2ccccc2c2cnc(N=CN(C)C)c(C#N)c21 was tested, and the z-score was 0.93. COC(=O)c1ccc(/C=N\N2CCN(Cc3ccc(C)cc3)CC2)cc1 gave a z-score of -0.269. Cc1cc(C(=O)NCc2ccc(S(N)(=O)=O)cc2)ccc1[N+](=O)[O-] showed a z-score of 0.205. For Cc1nc(-n2nnc3cc(C)c(C)cc32)c2c3c(sc2n1)CCCC3, the z-score was -0.163. Cc1onc(-c2ccccc2Cl)c1-c1nc(-c2ccncc2)no1 gave a z-score of -0.0851. O=C(NC1CCN(Cc2ccccc2)CC1)C1CCCN(S(=O)(=O)c2cccc3nonc23)C1 (stereo not given) gave a z-score of 0.117. Work on O=C(CCN1CCN(c2ccccc2)CC1)Nc1nccs1 yielded a z-score of 0.002. Cc1nc2ccc(S(=O)(=O)NCC(=O)O)cc2s1 was tested, and the z-score was 0.425. Work on Cc1sc2ncnc(SCC(=O)N3CCCC3=O)c2c1C yielded a z-score of 2.71. O=Cc1cccc(OC(=O)c2ccc(Cl)cc2Cl)c1 was tested, and the z-score was -0.0993. Work on CCOc1ccc(C(=O)NC(=S)Nc2ccc(N3CCOCC3)c(Cl)c2)cc1[N+](=O)[O-] yielded a z-score of 1.52. For Cc1ccccc1C(=O)NNC(=O)Cc1cccc2ccccc12, the z-score was -0.273. For O=C(Nc1ccccn1)c1cc(-c2cccnc2)nc2ccc(Br)cc12, the z-score was -0.0675. COc1ccc(-n2ccc(-c3nn(-c4cccc(C(F)(F)F)c4)ccc3=O)n2)cc1 was tested, and the z-score was -0.749. Cc1nc(NS(=O)(=O)c2ccccc2C)c2c3c(sc2n1)CCC3 gave a z-score of -0.235. Compound COc1ccc(C(=O)NCc2nnc(SCC(=O)Nc3nc4ccccc4s3)o2)cc1OC has a z-score of -0.301. In the case of NC(=O)C1(N2CCCCC2)CCN(S(=O)(=O)c2cc(Cl)ccc2Cl)CC1, the z-score is reported as -0.254. O=C(COC(=O)CN1C(=O)C2CCCCC2C1=O)Nc1ccc(S(=O)(=O)N2CCOCC2)cc1 (stereo not given) gave a z-score of -0.0161. Work on CC[n+]1c(/C=C/C=C/N(C(C)=O)c2ccccc2)sc2cc(OC)ccc21 yielded a z-score of -0.183. CCOc1ccc(OCC)c(NC(=O)CC2Oc3ccccc3NC2=O)c1 (stereo not given) was tested, and the z-score was 0.102. Compound FC(F)Sc1ccc(N=C2NN=C(c3ccc4c(c3)OCCO4)CS2)cc1 has a z-score of 0.174. In the case of CCOc1ccc(N2C(=O)CC(Sc3nc(C)cc(C)c3C#N)C2=O)cc1 (stereo not given), the z-score is reported as 0.15. O=C(NC1(C(F)(F)F)C(=O)Nc2c1c(=O)[nH]c(=O)n2Cc1ccccc1)c1ccc(Cl)cc1 (stereo not given) gave a z-score of -0.0254. In the case of O=C(O/N=C\c1ccc(N2CCCCC2)c([N+](=O)[O-])c1)c1c(F)cccc1F, the z-score is reported as 2.03. For CCOc1ccc(C(=O)N2CCc3cc(OC)c(OC)cc3C2)cc1OCC, the z-score was -1.52. With CC(NC(=O)COc1ccccc1)C(=O)OCC(=O)c1cc2ccccc2o1 (stereo not given) the z-score was -0.987. Work on Cc1noc(NS(=O)(=O)c2ccc(NC(=O)c3cnc4n(c3=O)CCS4)cc2)c1C yielded a z-score of -0.25. Work on O=C(NCCCN1CCOCC1)c1ccc(Br)cc1 yielded a z-score of -0.626. COC(=O)C1CCN(C(=O)N2CCOCC2)CC1 was tested, and the z-score was 0.0127. For CCC(C)Nc1nc(-c2cccc(OC)c2O)nc2ccccc12 (stereo not given), the z-score was -1.44. CN1CCN(c2oc(COc3ccc(-c4ccccc4)cc3)nc2C#N)CC1 showed a z-score of 0.843. With Cn1c(SCC(=O)Nc2nccs2)nnc1C12CC3CC(CC(C3)C1)C2 the z-score was -0.308. Compound Fc1cccc(Cl)c1CNC(c1ccccc1)c1ccccc1 has a z-score of -0.0753. In the case of CCOC(=O)C[n+]1c(C)sc2ccc(OC)cc21, the z-score is reported as -0.52. For CCC(C)c1ccc(NC(=S)Nc2ccc(OC)cc2C)cc1 (stereo not given), the z-score was 0.0172. With Cn1cnnc1SCC(=O)c1cc2ccccc2oc1=O the z-score was -0.329. COC(=O)C1=C(C(=O)c2ccc(C)cc2)C(c2ccc(O)c(OC)c2)n2nnnc2N1 (stereo not given) was tested, and the z-score was -0.252. CC(C)(C)NC(=O)c1sccc1C(=O)O showed a z-score of 0.115. Cc1c(Cc2ccccc2)c(=O)oc2c(C)c(OCc3nn[nH]n3)ccc12 showed a z-score of -0.174. Work on O=C(/C=C/c1ccc2c(c1)OCCCO2)c1ccccc1O yielded a z-score of 0.562. For O=c1c2c3c(sc2nc2n1N=C(c1cccs1)CS2)CCCC3, the z-score was 0.522. In the case of O=C1CC(N2CCN(c3ccccn3)CC2)C(=O)N1CC(c1ccccc1)c1ccccc1 (stereo not given), the z-score is reported as -0.182. In the case of COc1ccccc1NC1=NC(C)(C)N=C(N)N1, the z-score is reported as -0.029. Cc1sc2nc(N)sc2c1C showed a z-score of 0.431. Cc1nnc(SCC(=O)Nc2ncc3c(n2)CC(c2ccccc2)CC3=O)s1 (stereo not given) gave a z-score of -0.241. O=C(COC(=O)c1cncc(Br)c1)NCCC1=CCCCC1 showed a z-score of -0.212. COc1cccc(S(=O)(=O)N2CCOCC2)c1 showed a z-score of 0.363. CC(C)c1cc(C(=O)O)n[nH]1 showed a z-score of 0.159.
